Results taken from publication PMC12820563, “FoxP3 forms a head-to-head dimer in vivo and stabilizes its multimerization on adjacent microsatellites”.
This is one part of the list.

What follows are sequences tested against T1, MBP-FoxP1dN (Mus musculus, UniProt P58462 326-579) (assay: PD-seq (MBP pull-down with sequencing); 20 mM Tris-HCl pH 7.5, 100 mM NaCl, 1.5 mM MgCl2, 0.4 uM protein, 0.1 uM dsDNA library, 30 min, room temperature, amylose pull-down; high values mean tight binding). Details: protein: recombinant; tags: His6-MBP; chain copies: 2; dsDNA, one strand shown.
T1 sequence: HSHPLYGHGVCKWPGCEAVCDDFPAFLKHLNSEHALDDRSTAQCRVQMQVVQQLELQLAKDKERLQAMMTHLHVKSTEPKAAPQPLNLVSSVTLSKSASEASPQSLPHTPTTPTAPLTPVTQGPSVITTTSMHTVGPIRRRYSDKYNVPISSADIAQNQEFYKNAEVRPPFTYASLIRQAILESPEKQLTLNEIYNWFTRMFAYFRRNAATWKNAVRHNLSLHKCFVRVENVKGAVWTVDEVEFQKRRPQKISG
In short: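 Protein and DNA were mixed at 0.4 µM and 0.1 µM and held for 30 min at room temperature in Tris pH 7.5 buffer with NaCl and MgCl2; the protein was a His6-MBP-tagged, N-terminally truncated mouse FoxP3 or FoxP1 fragment from E. coli, and the DNA a Klenow-filled double-stranded degenerate library. Amylose resin captured the complexes, which were washed three times. Binding is read as reads-per-million enrichment of pull-down versus input after Illumina sequencing, with replicates pooled.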

Sequence | binding signal
GATGATTGTTCTCCCAGCTGATGAATTCCAGCTCTCGAGTAAACAAATTTTCCTAATCTTTCTGTTCAAGCGCCATCTAC | 0.704 RPM ratio (pull-down/input)
GATGATTGTTCTCCCAGCTGATGAATTATATTCCTCGAGTAAACAAATTTTCCTAATCTTTCTGTTCAAGCGCCATCTAC | 0.968 RPM ratio (pull-down/input)
GATGATTGTTCTCCCAGCTGATGAATTGCACTGGTCGAGTAAACAAATTTTCCTAATCTTTCTGTTCAAGCGCCATCTAC | 1.09 RPM ratio (pull-down/input)
GATGATTGTTCTCCCAGCTGATGAATTGTGCCCCTCGAGTAAACAAATTTTCCTAATCTTTCTGTTCAAGCGCCATCTAC | 0.989 RPM ratio (pull-down/input)
GATGATTGTTCTCCCAGCTGATGAATTAAACCATTCGAGTAAACAAATTTTCCTAATCTTTCTGTTCAAGCGCCATCTAC | 0.919 RPM ratio (pull-down/input)
GATGATTGTTCTCCCAGCTGATGAATTGCGCGATTCGAGTAAACAAATTTTCCTAATCTTTCTGTTCAAGCGCCATCTAC | 1.09 RPM ratio (pull-down/input)
GATGATTGTTCTCCCAGCTGATGAATTGCTAGGTTCGAGTAAACAAATTTTCCTAATCTTTCTGTTCAAGCGCCATCTAC | 0.944 RPM ratio (pull-down/input)
GATGATTGTTCTCCCAGCTGATGAATTATAATTATCGAGTAAACAAATTTTCCTAATCTTTCTGTTCAAGCGCCATCTAC | 1.37 RPM ratio (pull-down/input)
GATGATTGTTCTCCCAGCTGATGAATTATAAAAATCGAGTAAACAAATTTTCCTAATCTTTCTGTTCAAGCGCCATCTAC | 1.08 RPM ratio (pull-down/input)
GATGATTGTTCTCCCAGCTGATGAATTGAAAAATTCGAGTAAACAAATTTTCCTAATCTTTCTGTTCAAGCGCCATCTAC | 0.848 RPM ratio (pull-down/input)
GATGATTGTTCTCCCAGCTGATGAATTAGGGTGATCGAGTAAACAAATTTTCCTAATCTTTCTGTTCAAGCGCCATCTAC | 0.866 RPM ratio (pull-down/input)
GATGATTGTTCTCCCAGCTGATGAATTCGCACGATCGAGTAAACAAATTTTCCTAATCTTTCTGTTCAAGCGCCATCTAC | 0.935 RPM ratio (pull-down/input)
GATGATTGTTCTCCCAGCTGATGAATTGTCGGACTCGAGTAAACAAATTTTCCTAATCTTTCTGTTCAAGCGCCATCTAC | 0.885 RPM ratio (pull-down/input)
GATGATTGTTCTCCCAGCTGATGAATTAAGCAAATCGAGTAAACAAATTTTCCTAATCTTTCTGTTCAAGCGCCATCTAC | 1.18 RPM ratio (pull-down/input)
GATGATTGTTCTCCCAGCTGATGAATTATGCTATTCGAGTAAACAAATTTTCCTAATCTTTCTGTTCAAGCGCCATCTAC | 1.23 RPM ratio (pull-down/input)
GATGATTGTTCTCCCAGCTGATGAATTGACGACCTCGAGTAAACAAATTTTCCTAATCTTTCTGTTCAAGCGCCATCTAC | 1.02 RPM ratio (pull-down/input)
GATGATTGTTCTCCCAGCTGATGAATTACAGTTCTCGAGTAAACAAATTTTCCTAATCTTTCTGTTCAAGCGCCATCTAC | 1.05 RPM ratio (pull-down/input)
GATGATTGTTCTCCCAGCTGATGAATTATAGTTTTCGAGTAAACAAATTTTCCTAATCTTTCTGTTCAAGCGCCATCTAC | 1.26 RPM ratio (pull-down/input)
GATGATTGTTCTCCCAGCTGATGAATTATTCAAGTCGAGTAAACAAATTTTCCTAATCTTTCTGTTCAAGCGCCATCTAC | 0.991 RPM ratio (pull-down/input)
GATGATTGTTCTCCCAGCTGATGAATTTAGCGGCTCGAGTAAACAAATTTTCCTAATCTTTCTGTTCAAGCGCCATCTAC | 0.898 RPM ratio (pull-down/input)
GATGATTGTTCTCCCAGCTGATGAATTGTCTTATTCGAGTAAACAAATTTTCCTAATCTTTCTGTTCAAGCGCCATCTAC | 1.18 RPM ratio (pull-down/input)

Sequence | binding signal
GATGATTGTTCTCCCAGCTGATGAATTAAACGGATCGAGTAAACAAATTTTCCTAATCTTTCTGTTCAAGCGCCATCTAC | 0.841 RPM ratio (pull-down/input)
GATGATTGTTCTCCCAGCTGATGAATTAGATGTGTCGAGTAAACAAATTTTCCTAATCTTTCTGTTCAAGCGCCATCTAC | 1.01 RPM ratio (pull-down/input)
GATGATTGTTCTCCCAGCTGATGAATTTTAGTGATCGAGTAAACAAATTTTCCTAATCTTTCTGTTCAAGCGCCATCTAC | 0.914 RPM ratio (pull-down/input)
GATGATTGTTCTCCCAGCTGATGAATTGTTGCTGTCGAGTAAACAAATTTTCCTAATCTTTCTGTTCAAGCGCCATCTAC | 2 RPM ratio (pull-down/input)
GATGATTGTTCTCCCAGCTGATGAATTCGGACTCTCGAGTAAACAAATTTTCCTAATCTTTCTGTTCAAGCGCCATCTAC | 0.854 RPM ratio (pull-down/input)
GATGATTGTTCTCCCAGCTGATGAATTTTTCAGATCGAGTAAACAAATTTTCCTAATCTTTCTGTTCAAGCGCCATCTAC | 0.882 RPM ratio (pull-down/input)
GATGATTGTTCTCCCAGCTGATGAATTTTAAGTCTCGAGTAAACAAATTTTCCTAATCTTTCTGTTCAAGCGCCATCTAC | 0.861 RPM ratio (pull-down/input)
GATGATTGTTCTCCCAGCTGATGAATTCTAGTTCTCGAGTAAACAAATTTTCCTAATCTTTCTGTTCAAGCGCCATCTAC | 0.825 RPM ratio (pull-down/input)
GATGATTGTTCTCCCAGCTGATGAATTGTTGGTATCGAGTAAACAAATTTTCCTAATCTTTCTGTTCAAGCGCCATCTAC | 1.92 RPM ratio (pull-down/input)
GATGATTGTTCTCCCAGCTGATGAATTAAGGGCGTCGAGTAAACAAATTTTCCTAATCTTTCTGTTCAAGCGCCATCTAC | 0.85 RPM ratio (pull-down/input)
GATGATTGTTCTCCCAGCTGATGAATTGGGGCTCTCGAGTAAACAAATTTTCCTAATCTTTCTGTTCAAGCGCCATCTAC | 0.79 RPM ratio (pull-down/input)
GATGATTGTTCTCCCAGCTGATGAATTTCGACTGTCGAGTAAACAAATTTTCCTAATCTTTCTGTTCAAGCGCCATCTAC | 0.795 RPM ratio (pull-down/input)
GATGATTGTTCTCCCAGCTGATGAATTGCATTGGTCGAGTAAACAAATTTTCCTAATCTTTCTGTTCAAGCGCCATCTAC | 1.15 RPM ratio (pull-down/input)
GATGATTGTTCTCCCAGCTGATGAATTCTTCTAATCGAGTAAACAAATTTTCCTAATCTTTCTGTTCAAGCGCCATCTAC | 1.02 RPM ratio (pull-down/input)
GATGATTGTTCTCCCAGCTGATGAATTGGGGTGATCGAGTAAACAAATTTTCCTAATCTTTCTGTTCAAGCGCCATCTAC | 0.894 RPM ratio (pull-down/input)
GATGATTGTTCTCCCAGCTGATGAATTCACCCTTTCGAGTAAACAAATTTTCCTAATCTTTCTGTTCAAGCGCCATCTAC | 0.883 RPM ratio (pull-down/input)
GATGATTGTTCTCCCAGCTGATGAATTAGTAGTGTCGAGTAAACAAATTTTCCTAATCTTTCTGTTCAAGCGCCATCTAC | 1 RPM ratio (pull-down/input)
GATGATTGTTCTCCCAGCTGATGAATTGAGACAGTCGAGTAAACAAATTTTCCTAATCTTTCTGTTCAAGCGCCATCTAC | 0.909 RPM ratio (pull-down/input)
GATGATTGTTCTCCCAGCTGATGAATTTTGCTTGTCGAGTAAACAAATTTTCCTAATCTTTCTGTTCAAGCGCCATCTAC | 1.65 RPM ratio (pull-down/input)
GATGATTGTTCTCCCAGCTGATGAATTTACTACTTCGAGTAAACAAATTTTCCTAATCTTTCTGTTCAAGCGCCATCTAC | 1.41 RPM ratio (pull-down/input)
GATGATTGTTCTCCCAGCTGATGAATTCGTGGGATCGAGTAAACAAATTTTCCTAATCTTTCTGTTCAAGCGCCATCTAC | 0.84 RPM ratio (pull-down/input)

Sequence | binding signal
GATGATTGTTCTCCCAGCTGATGAATTTTTCGGTTCGAGTAAACAAATTTTCCTAATCTTTCTGTTCAAGCGCCATCTAC | 1.02 RPM ratio (pull-down/input)
GATGATTGTTCTCCCAGCTGATGAATTAGCCTTTTCGAGTAAACAAATTTTCCTAATCTTTCTGTTCAAGCGCCATCTAC | 1.03 RPM ratio (pull-down/input)
GATGATTGTTCTCCCAGCTGATGAATTCCCAGTCTCGAGTAAACAAATTTTCCTAATCTTTCTGTTCAAGCGCCATCTAC | 0.749 RPM ratio (pull-down/input)
GATGATTGTTCTCCCAGCTGATGAATTCGGCGACTCGAGTAAACAAATTTTCCTAATCTTTCTGTTCAAGCGCCATCTAC | 0.824 RPM ratio (pull-down/input)
GATGATTGTTCTCCCAGCTGATGAATTGTTGAGCTCGAGTAAACAAATTTTCCTAATCTTTCTGTTCAAGCGCCATCTAC | 1.02 RPM ratio (pull-down/input)
GATGATTGTTCTCCCAGCTGATGAATTCACTTTTTCGAGTAAACAAATTTTCCTAATCTTTCTGTTCAAGCGCCATCTAC | 0.894 RPM ratio (pull-down/input)
GATGATTGTTCTCCCAGCTGATGAATTCGATACCTCGAGTAAACAAATTTTCCTAATCTTTCTGTTCAAGCGCCATCTAC | 0.812 RPM ratio (pull-down/input)
GATGATTGTTCTCCCAGCTGATGAATTATAAGACTCGAGTAAACAAATTTTCCTAATCTTTCTGTTCAAGCGCCATCTAC | 0.953 RPM ratio (pull-down/input)
GATGATTGTTCTCCCAGCTGATGAATTGGAACTCTCGAGTAAACAAATTTTCCTAATCTTTCTGTTCAAGCGCCATCTAC | 0.757 RPM ratio (pull-down/input)
GATGATTGTTCTCCCAGCTGATGAATTACATCACTCGAGTAAACAAATTTTCCTAATCTTTCTGTTCAAGCGCCATCTAC | 1.1 RPM ratio (pull-down/input)
GATGATTGTTCTCCCAGCTGATGAATTGGTTGAGTCGAGTAAACAAATTTTCCTAATCTTTCTGTTCAAGCGCCATCTAC | 0.962 RPM ratio (pull-down/input)
GATGATTGTTCTCCCAGCTGATGAATTAGGGGGGTCGAGTAAACAAATTTTCCTAATCTTTCTGTTCAAGCGCCATCTAC | 0.706 RPM ratio (pull-down/input)
GATGATTGTTCTCCCAGCTGATGAATTTATGCTATCGAGTAAACAAATTTTCCTAATCTTTCTGTTCAAGCGCCATCTAC | 1.29 RPM ratio (pull-down/input)
GATGATTGTTCTCCCAGCTGATGAATTATTACTATCGAGTAAACAAATTTTCCTAATCTTTCTGTTCAAGCGCCATCTAC | 1.21 RPM ratio (pull-down/input)
GATGATTGTTCTCCCAGCTGATGAATTTTGCTAGTCGAGTAAACAAATTTTCCTAATCTTTCTGTTCAAGCGCCATCTAC | 1.01 RPM ratio (pull-down/input)
GATGATTGTTCTCCCAGCTGATGAATTGCTGACTTCGAGTAAACAAATTTTCCTAATCTTTCTGTTCAAGCGCCATCTAC | 1.04 RPM ratio (pull-down/input)
GATGATTGTTCTCCCAGCTGATGAATTTTTTCTATCGAGTAAACAAATTTTCCTAATCTTTCTGTTCAAGCGCCATCTAC | 1.08 RPM ratio (pull-down/input)
GATGATTGTTCTCCCAGCTGATGAATTCTTGAACTCGAGTAAACAAATTTTCCTAATCTTTCTGTTCAAGCGCCATCTAC | 0.854 RPM ratio (pull-down/input)
GATGATTGTTCTCCCAGCTGATGAATTTATAGCTTCGAGTAAACAAATTTTCCTAATCTTTCTGTTCAAGCGCCATCTAC | 0.986 RPM ratio (pull-down/input)
GATGATTGTTCTCCCAGCTGATGAATTGAAATGGTCGAGTAAACAAATTTTCCTAATCTTTCTGTTCAAGCGCCATCTAC | 0.809 RPM ratio (pull-down/input)
GATGATTGTTCTCCCAGCTGATGAATTCAACAGATCGAGTAAACAAATTTTCCTAATCTTTCTGTTCAAGCGCCATCTAC | 0.949 RPM ratio (pull-down/input)
